Test results published in article PMC4336329 (PLoS ONE, 2015).
Out of some 310,000 compounds screened, about 2,200 (0.71%) showed an effect of 50% or more. The effect is printed as a negative number. The list shows a part of the results.

Molecular target: human ether-à-go-go-related gene (hERG) potassium channel (human, UniProt Q12809)
Assay: primary screen, population patch clamp on CHO cells stably expressing hERG
Description: Briefly, Chinese hamster ovary (CHO) cells stably expressing the hERG channel were dislodged from tissue culture flasks and dispensed into PPC plates. […] During the recording, background leak currents were estimated by a 100 ms step to -80 mV from an initial holding potential of -70 mV and subtracted from the subsequent current measurement. The campaign was conducted in two phases using slight differences in recording protocol. In the first phase, the initial voltage pulse used a 100 ms step to -30 mV from a holding potential of -70 mV, a 2 s conditioning step to +25 mV, and a 2 s test step to -30 mV. During the second phase of the screen, the potential during the conditioning step was raised to +45 mV. In both phases of the campaign, a secondary voltage pulse was applied using the same parameters as the second phase initial pulse. The initial and secondary pulses were applied in the absence of compound, and upon application of 1 μM and 10 μM test concentrations. Small molecule effects on hERG current density were quantified by […].

Chain of human ether-à-go-go-related gene (hERG) potassium channel (Q12809 whole entry, looked up): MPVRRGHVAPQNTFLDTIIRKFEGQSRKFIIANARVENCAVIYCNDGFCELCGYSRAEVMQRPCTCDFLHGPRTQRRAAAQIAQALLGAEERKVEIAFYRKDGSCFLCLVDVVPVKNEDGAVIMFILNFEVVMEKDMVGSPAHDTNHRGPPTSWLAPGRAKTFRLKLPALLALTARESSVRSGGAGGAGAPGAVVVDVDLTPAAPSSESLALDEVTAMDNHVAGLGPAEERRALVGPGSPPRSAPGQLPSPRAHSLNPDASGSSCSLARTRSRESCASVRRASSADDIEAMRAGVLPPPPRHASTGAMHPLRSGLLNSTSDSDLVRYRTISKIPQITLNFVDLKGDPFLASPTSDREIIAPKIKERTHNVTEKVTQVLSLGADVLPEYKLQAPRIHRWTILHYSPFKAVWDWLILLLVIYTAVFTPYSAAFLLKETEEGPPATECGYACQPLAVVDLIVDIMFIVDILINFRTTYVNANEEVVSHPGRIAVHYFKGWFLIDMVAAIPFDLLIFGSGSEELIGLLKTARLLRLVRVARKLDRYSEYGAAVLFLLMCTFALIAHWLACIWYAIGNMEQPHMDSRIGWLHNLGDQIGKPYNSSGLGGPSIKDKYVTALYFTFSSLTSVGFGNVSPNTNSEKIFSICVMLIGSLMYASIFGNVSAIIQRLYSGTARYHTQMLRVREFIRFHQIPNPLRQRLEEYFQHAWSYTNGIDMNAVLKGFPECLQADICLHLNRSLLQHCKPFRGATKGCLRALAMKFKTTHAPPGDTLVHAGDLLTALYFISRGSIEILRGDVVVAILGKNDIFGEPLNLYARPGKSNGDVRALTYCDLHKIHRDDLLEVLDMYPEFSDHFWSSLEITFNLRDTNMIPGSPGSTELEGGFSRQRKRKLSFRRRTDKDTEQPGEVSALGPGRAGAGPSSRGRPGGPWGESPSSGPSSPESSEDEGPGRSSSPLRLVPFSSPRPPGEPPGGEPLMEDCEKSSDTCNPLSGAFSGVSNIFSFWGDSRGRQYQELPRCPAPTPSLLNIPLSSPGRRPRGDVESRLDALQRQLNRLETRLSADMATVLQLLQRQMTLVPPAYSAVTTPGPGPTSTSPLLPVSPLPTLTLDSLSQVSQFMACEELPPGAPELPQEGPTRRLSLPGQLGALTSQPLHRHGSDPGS

| Compound | hERG current change (%, negative = inhibition) at 1uM [%] |
| --- | --- |
| O=C(NCCCN1CCOCC1)c1ccc(Sc2ccccc2Cl)c([N+](=O)[O-])c1 | -1.38 |
| O=C1C(=Nc2cccc(Cl)c2)CC(c2ccc(Cl)cc2)N1c1cccc(Cl)c1 (stereo not drawn) | 13.4 |
| O=C(Cc1ccccc1)OCCNC(=O)c1ccc[nH+]c1.[Cl-] | -0.498 |
| CC(C)(C)NC(=O)C(c1ccco1)N(C(=O)c1ccc(CN2CCOCC2)o1)c1ccccc1 (stereo not drawn) | 0.327 |
| NC(=O)c1ccc(NC(=O)COC(=O)c2ccc(Cl)nc2)cc1 | 3.44 |
| Cc1cc(C)cc(NC(=O)CSc2nnc(-c3ccncc3)o2)c1 | -0.778 |
| O=C(c1ccco1)C(O)c1ccco1 (stereo not drawn) | 12.6 |
| O=C(NCCCn1ccnc1)c1csc2ccccc12 | -9.4 |
| CCN(CC)S(=O)(=O)c1ccc(OC)c(NC(=O)c2cc3c(=O)n4ccccc4nc3s2)c1 | 10.6 |
| O=C(COc1ccc(F)cc1)N1CCC(Cc2ccccc2)CC1 | 9.54 |
| CN(CC(=O)Nc1ccc(F)cc1)C(=O)COC(=O)c1cc([N+](=O)[O-])ccc1N1CCOCC1 | -11.6 |
| CCCS(=O)(=O)N1CCN(Cc2ccccc2OCC)CC1 | -4.4 |
| O=C(NCCCNc1ccc([N+](=O)[O-])cc1)C(F)(F)F | 6.61 |
| Cc1cc(C(=O)OCC(=O)Nc2ccc(F)c(F)c2F)c(C)o1 | 11.4 |
| CCc1c(C)c2ccc(O)c(CN(C)C)c2oc1=O | 7.22 |
| CCc1c(C)nc2ncnn2c1N1CCC(C(=O)Nc2ccc(C)cc2)CC1 | -17.4 |
| CCCCCCCCCCS(=O)(=O)N/N=C/c1ccc(O)cc1 | 13.3 |
| CCCc1cc(=O)oc2cc(OCC(=O)Nc3cc(C)on3)ccc12 | 8.03 |
| CC(C)(Oc1ccc(Cl)cc1)C(=O)Nc1ncccn1 | 6.6 |
| CN(Cc1ccccc1)c1nc2c(c(=O)[nH]c(=O)n2C)n1CCCSc1ncccn1 | -0.0086 |
| CC(OC(=O)c1ccco1)C(=O)Nc1ccc(Cl)cn1 (stereo not drawn) | 5.93 |
| Cc1cc(=O)c2c(C)ccc(C)c2[nH]1 | 15.8 |
| O=C(COC(=O)CSc1ccccc1)NNC(=O)c1ccc([N+](=O)[O-])cc1 | 7.62 |

| Compound | hERG current change (%, negative = inhibition) at 1uM [%] |
| --- | --- |
| CC(C)C1N(S(=O)(=O)c2ccccc2)CCN1S(=O)(=O)c1ccccc1 | -8.58 |
| Cc1n[nH]c(C)c1S(=O)(=O)N1CCCC(C(=O)Nc2nccs2)C1 (stereo not drawn) | 7.73 |
| CCOc1ccc(N(CC(=O)NC2CCCCC2)S(=O)(=O)c2ccc(C)cc2)cc1 | 3.38 |
| O=C(NCCCN1CCOCC1)c1csc2c1CCCC2 | 9.09 |
| CCn1nc(C)c(CNC(=O)CCc2nnc(-c3ccc(C(C)=O)s3)o2)c1C | 7.29 |
| O=C(Cn1cnc2ccccc2c1=O)Nc1nnc(SCc2ccccc2)s1 | 2.31 |
| ClCCCc1cn(C[C@H]2CC[C@@H]([C@@H]3CC[C@H](Cn4cc(CCCCl)nn4)O3)O2)nn1 | -12.4 |
| CCOC(=O)c1cc(C(C)C)sc1NC(=O)COC(=O)CCS(=O)(=O)c1ccccc1 | 6.88 |
| CS(=O)(=O)N1CCN(c2ccccc2NC(=O)c2ccc(Cl)cc2)CC1 | 5.76 |
| COc1ccc(NC(=O)CCS(=O)(=O)c2ccc(Cl)cc2)cc1 | 4.13 |
| Cc1ccc(OCC(=O)Nc2cccc3c2CCCC3)cc1C | 7.4 |
| O=C(NNC(=O)c1ccc(Cl)nc1)c1ccncc1 | 4.5 |
| COc1ccc(Cl)cc1-c1nc(-c2ccncc2)no1 | 12.6 |
| CC(=O)NC(c1ccccc1)c1cc(Cl)c2cccnc2c1O (stereo not drawn) | 7.95 |
| Cc1c(Cl)cccc1Nc1ccccc1C(=O)O | 14.7 |
| COc1ccccc1COCC(O)CN(Cc1ccco1)Cc1ccccc1O (stereo not drawn) | 13.1 |
| N/C(=N\OC(=O)/C=C/c1ccccc1)c1ccccn1 | 9.07 |
| Cc1ccc(N(C(=O)c2csnn2)C(C(=O)NC2CCCC2)c2ccncc2)c(C)c1 (stereo not drawn) | 1.27 |
| CCN(C)Cc1c(C(=O)N2CCc3ccccc3C2)nc2ccc(Cl)cn12 | -1.03 |
| O=C(Nc1cc(Cl)ccc1N1CCCC1)C1=COCCO1 | 0.622 |
| CCCCNC(=O)COC(=O)CCC(=O)c1ccc(F)cc1 | 5.72 |
| O=C(O)c1cc(N/N=C/c2ccc3c(c2)OCO3)ccc1Cl | 11.7 |
